The text below walks through data of patent publication US8962670B2, “Anti-cancer agents” (UWM Research Foundation, Inc., priority 2011, dated 2015).

Molecules are shown by their SMILES.

This test deals with 49 mer DNA duplex 292. Put plainly: DNA ICL formation with/without H2O2, denaturing PAGE (Example 15).

`CC1(C)OB(c2cc(C[N+](C)(C)C)c(B3OC(C)(C)C(C)(C)O3)cc2C[N+](C)(C)C)OC1(C)C` [Compound 48, 1,4-Di-trimethyl-[2,5-di(4′,4′,5′,5′-tetramethyl-[1′,3′,2′]dioxaborolan-2′-yl)-benzyl]-ammonium bromide]: the cross-linking yield is on record as 2% (10 μM compound + 5 μM H2O2), 8% (100 μM compound + 50 μM H2O2) and 24% (2 mM compound + 1 mM H2O2).
As for `CC1(C)OB(c2ccc(-c3ccc(B4OC(C)(C)C(C)(C)O4)c(C[N+](C)(C)C)c3)cc2C[N+](C)(C)C)OC1(C)C` [Compound 47, 3,3′-Di(trimethyl)-[4,4′-di(4,4,5,5-tetramethyl-[1,3,2]dioxaborolan-2-yl)-biphenyl]-ammonium bromide], the cross-linking yield (10 μM compound + 5 μM H2O2) is reported as 0%.
